This note sets out measurements from the supplement of paper PMC7826260.

Assay in all cases: uncleaved DNA left, log2 of reads against the no-enzyme library (log2 ratio); higher = less cleavage (more negative = more Rep cleavage of the k-mer); sequences stand for … in CTCGTCCG…ACCGGAGA
Test [1] deals with T1, Rep nickase domain of Muscovy duck circovirus.
T1 sequence (residues 1-111, tag not shown): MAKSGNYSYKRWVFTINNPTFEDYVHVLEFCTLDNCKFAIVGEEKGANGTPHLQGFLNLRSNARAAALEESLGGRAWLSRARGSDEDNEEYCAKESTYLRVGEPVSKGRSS
As to the method:
(§1)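 A pool of 90-nt single-stranded DNAs with seven random bases just before the constant AC of the nick site (name = the seven bases) was cut by 3 µM recombinant His6-SUMO-tagged Rep nickase domain (300 nM DNA, 50 mM HEPES pH 8.0, 50 mM NaCl, 1 mM MnCl2, 1 h, 37 °C, three replicates). Uncut DNA was amplified and sequenced.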

The test system of test [2] is T2, Rep nickase domain of banana bunchy top virus.
T2 sequence (residues 1-94, tag not shown): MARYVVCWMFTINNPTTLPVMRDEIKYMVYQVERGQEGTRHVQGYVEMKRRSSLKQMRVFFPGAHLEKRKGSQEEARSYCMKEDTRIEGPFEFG
Here is the method:
as §1

In test [3] the test system is T3, Rep nickase domain of cabbage leaf curl virus.
T3 sequence (residues 1-116, tag not shown): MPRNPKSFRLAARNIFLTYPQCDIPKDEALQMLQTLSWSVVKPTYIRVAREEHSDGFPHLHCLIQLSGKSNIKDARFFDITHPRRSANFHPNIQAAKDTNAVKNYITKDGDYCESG
Here is the method: as §1
Test [4] has as its system T4, Rep nickase domain of chickpea chlorotic dwarf virus.
T4 sequence (residues 1-124, tag not shown): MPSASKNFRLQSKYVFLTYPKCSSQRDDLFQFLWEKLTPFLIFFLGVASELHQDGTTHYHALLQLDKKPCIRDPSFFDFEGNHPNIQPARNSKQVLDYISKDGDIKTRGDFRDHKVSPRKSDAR
Here is the method: as §1
In test [5] the test system is T5, Rep nickase domain of faba bean necrotic yellows virus.
T5 sequence (residues 1-98, tag not shown): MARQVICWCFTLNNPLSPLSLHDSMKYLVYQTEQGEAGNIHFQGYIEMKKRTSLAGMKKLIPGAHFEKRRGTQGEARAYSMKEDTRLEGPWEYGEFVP
As to the method: as §1
Test [6] has as its system T6, Rep nickase domain of maize striate mosaic virus.
T6 sequence (residues 1-117, tag not shown): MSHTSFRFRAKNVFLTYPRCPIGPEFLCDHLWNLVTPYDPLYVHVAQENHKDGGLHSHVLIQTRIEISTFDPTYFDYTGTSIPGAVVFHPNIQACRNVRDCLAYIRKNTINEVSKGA
Here is the method: as §1
Test [7] deals with T7, Rep nickase domain of porcine circovirus 2.
T7 sequence (residues 2-116, tag not shown): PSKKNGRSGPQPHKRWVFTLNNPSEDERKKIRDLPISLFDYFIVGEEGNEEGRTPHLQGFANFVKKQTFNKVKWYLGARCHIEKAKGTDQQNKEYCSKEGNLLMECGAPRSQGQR
Here is the method: as §1
Test [8] deals with T8, Rep nickase domain of tomato golden mosaic virus.
T8 sequence (residues 1-124, tag not shown): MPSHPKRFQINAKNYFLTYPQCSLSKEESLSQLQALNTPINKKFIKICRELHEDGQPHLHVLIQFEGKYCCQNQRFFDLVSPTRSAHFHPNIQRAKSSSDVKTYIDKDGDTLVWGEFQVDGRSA
Here is the method: as §1
The test system of test [9] is T9, Rep nickase domain of tomato yellow leaf curl virus.
T9 sequence (residues 1-136, tag not shown): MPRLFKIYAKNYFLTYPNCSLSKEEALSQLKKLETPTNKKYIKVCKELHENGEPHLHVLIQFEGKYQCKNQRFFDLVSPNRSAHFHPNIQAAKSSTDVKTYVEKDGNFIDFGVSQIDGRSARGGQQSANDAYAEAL
As to the method: as §1
In test [10] the test system is T10, Rep nickase domain of wheat dwarf virus.
T10 sequence (residues 1-137, tag not shown): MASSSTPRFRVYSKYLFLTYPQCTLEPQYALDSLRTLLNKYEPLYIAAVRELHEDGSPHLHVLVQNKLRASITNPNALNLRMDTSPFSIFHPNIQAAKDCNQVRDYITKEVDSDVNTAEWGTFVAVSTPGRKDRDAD
Here is the method: as §1

The other results are listed elsewhere or left out. Viral Rep nickase domains cut single-stranded DNA in vitro for 1 h at 37 °C with 3 µM enzyme; only the middle of the 90-letter strands is printed. Uncut reads are compared with the no-enzyme pool on a log2 scale; strong cutting gives strongly negative numbers. There is no active / inactive call. The scaling is to total reads; where an enzyme cuts many sequences, the uncut ones exceed 0.

Turning to AACTACG, the “uncleaved DNA left (log2)” value in test [1] is -0.00439; in test [2] it was 0.154; in [3], -0.815; in [4] it was -0.74; in test [5], 0.119; in [6] it was -1.01. Moreover, the “uncleaved DNA left (log2)” value in test [7] is 0.0822; in test [8], 0.0416; in test [9], -0.0778; in [10], -0.0264.

Regarding AAGTTGT, the “uncleaved DNA left (log2)” value was -0.131 in test [1]; -0.159 in [2]; 0.148 in test [3]; 0.139 in [4]; -0.0345 in [5]; 0.616 in test [6]. Further, the “uncleaved DNA left (log2)” value in [7] was -3.8; in test [8], 0.0808; in [9] it was -0.0943; in [10], -0.0921.

As to CAACTCA, the “uncleaved DNA left (log2)” value in test [1] is -0.0564; in [2], -0.0428; in test [3], -0.293; in test [4], -2.6; in test [5] it was -0.0566; in test [6], -0.605. Moreover, the “uncleaved DNA left (log2)” value was -0.181 in test [7], -0.144 in test [8], -0.043 in test [9] and -0.109 in test [10].

AGCGTAC: the “uncleaved DNA left (log2)” value in test [1] was -0.0824; in test [2], -0.0546; in test [3], -0.0419; in [4], 0.349; in test [5], -0.0659; in test [6] it was 0.819. The “uncleaved DNA left (log2)” value was -0.0522 in [7], -0.0379 in test [8], -0.0237 in test [9] and -0.0184 in test [10].
